Measured values as given in PubChem BioAssay AID504339 (National Center for Advancing Translational Sciences (NCATS), 2011).
Out of some 390,000 compounds screened, about 17,000 (4.4%) were called active. Inconclusive results, whose numbers are uncertain, are shown with a selection of clear calls. The call rests on the fitted dose curve; in most records, active means well fitted inhibition curve with a large enough effect; inconclusive means small, poorly fitted or top-dose-only effect; inactive means no such curve, though single readings can be large or run the other way. Where the call is inconclusive, the potency comes from a doubtful curve fit.

Molecular target: Lysine-specific demethylase 4A (Homo sapiens) (UniProt O75164)
Sequence of UniProt O75164 (O75164 whole entry, looked up, the tested form may be a part): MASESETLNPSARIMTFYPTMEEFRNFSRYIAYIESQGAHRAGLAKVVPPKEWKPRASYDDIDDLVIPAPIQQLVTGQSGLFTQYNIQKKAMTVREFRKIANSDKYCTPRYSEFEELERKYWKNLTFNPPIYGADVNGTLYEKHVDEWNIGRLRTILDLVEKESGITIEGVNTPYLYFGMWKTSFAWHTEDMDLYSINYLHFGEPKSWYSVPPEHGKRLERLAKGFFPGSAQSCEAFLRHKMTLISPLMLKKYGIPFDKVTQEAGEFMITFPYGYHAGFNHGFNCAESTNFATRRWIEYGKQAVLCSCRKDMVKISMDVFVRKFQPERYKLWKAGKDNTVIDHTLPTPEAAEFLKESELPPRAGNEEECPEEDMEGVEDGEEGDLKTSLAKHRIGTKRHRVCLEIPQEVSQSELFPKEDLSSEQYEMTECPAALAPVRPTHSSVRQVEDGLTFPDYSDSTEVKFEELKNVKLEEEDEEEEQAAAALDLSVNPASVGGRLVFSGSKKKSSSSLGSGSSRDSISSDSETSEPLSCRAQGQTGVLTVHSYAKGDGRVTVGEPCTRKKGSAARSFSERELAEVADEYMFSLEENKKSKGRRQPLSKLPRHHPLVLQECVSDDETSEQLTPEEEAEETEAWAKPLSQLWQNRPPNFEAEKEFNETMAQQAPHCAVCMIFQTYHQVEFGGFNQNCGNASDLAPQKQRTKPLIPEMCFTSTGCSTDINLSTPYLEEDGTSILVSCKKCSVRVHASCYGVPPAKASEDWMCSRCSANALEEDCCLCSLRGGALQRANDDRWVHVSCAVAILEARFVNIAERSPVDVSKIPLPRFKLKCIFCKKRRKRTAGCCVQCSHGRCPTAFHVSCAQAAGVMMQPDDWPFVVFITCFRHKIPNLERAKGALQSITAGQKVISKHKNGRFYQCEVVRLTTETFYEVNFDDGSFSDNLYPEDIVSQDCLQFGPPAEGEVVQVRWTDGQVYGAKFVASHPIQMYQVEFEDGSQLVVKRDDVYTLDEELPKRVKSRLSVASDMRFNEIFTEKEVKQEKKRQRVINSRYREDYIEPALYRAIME
Assay: qHTS Assay for Inhibitors of JMJD2A-Tudor Domain; further: nearly all actives have a fitted effect of over 50% in size
Conditions: AlphaScreen JMJD2A-Tudor / H3K4me3 peptide binding; activity change, negative = inhibition: at 114 µM (top of the series)
On the % scale 0 is the no-effect control and ±100 the full control effect; potency means the concentration at half of the fitted maximal effect; tags describe the fitted curve by direction and shape.

SMILES | Potency | activity change, negative = inhibition
Cc1ccccc1CNC(=O)c1ccc2c(c1)c(C)c(C)n2C | inconclusive: 50.1 µM [inhibitor, partial curve] | 
Cc1cccc(/C=N\Nc2nnc(-c3ccccc3)c(=O)[nH]2)c1 | inconclusive: 39.8 µM [inhibitor, single point] | 
CN(C)c1ccc(CNC(=O)c2ccc(Cn3c(SCc4ccccc4)nc4cccnc43)cc2)cc1 | inconclusive: 17.8 µM [inhibitor, full curve] | 
CNc1cc(F)nc(F)n1 | inconclusive: 15.8 µM [inhibitor, full curve] | 
O=C(Nc1ccc(-c2csc(Nc3ccccc3)n2)cc1)c1cccc(C(F)(F)F)c1 | inconclusive: 39.8 µM [inhibitor, full curve, poor fit] | 
Cc1c(O)c(=O)n(-c2ccccc2)n1C |  | inactive: -7.91%
N#Cc1ccccc1OCc1cn(CC(=O)c2ccc(O)cc2)nn1 | active: 20 µM | 
Cc1ccc(-c2ccc(/C=N\NC(=O)C3C(=O)NCC3c3ccccc3)o2)cc1Cl (centres undefined) | inconclusive: 56.2 µM [inhibitor, partial curve] | 
CCc1cccc(NC(=O)CCc2nc3sc4c(c3c(=O)[nH]2)CCCC4)c1 | inconclusive: 14.1 µM [inhibitor, full curve, poor fit] | 
Cc1cc(C)n(-c2nc3ccccc3nc2Nc2ccc(N(C)C)cc2)n1 | active: 11.2 µM | 
Cn1cc(C(=O)c2ccc(Cl)cc2Cl)cc1C(=O)N/N=C(\N)COc1cccc(C(F)(F)F)c1 | inconclusive: 56.2 µM [inhibitor, partial curve, poor fit] | 
Cc1cc(C)cc(NC(=O)Cn2c(-c3cncs3)nc3ccccc32)c1 | inconclusive: 14.1 µM [inhibitor, full curve] | 
O=C(NNC(=O)c1ccc(NC(=O)c2ccccc2)cc1)c1ccccc1 | inconclusive: 39.8 µM [inhibitor, full curve, poor fit] | 
Clc1ccc(OCc2nc(-c3ccccn3)no2)c(Br)c1 |  | inactive: 2.07%
Nc1c(C(=O)NCc2ccco2)sc2nc3c(cc12)C(=O)CCC3 | active: 56.2 µM | 
CCNc1cc(O)ccc1C | inconclusive: 89.1 µM [inhibitor, partial curve] | 
CC1CCc2c(sc(Nc3nc4c(F)cccc4s3)c2C(N)=O)C1 (centres undefined) | inconclusive: 28.2 µM [inhibitor, single point] | 
CCc1ccc(N2CC(C(=O)N/N=C/c3ccccc3)CC2=O)cc1 (centres undefined) | inconclusive: 44.7 µM [inhibitor, partial curve] | 
CCOC(=O)c1nnc(-c2ccc(C)cc2)nc1Sc1ccccc1Cl | inconclusive: 17.8 µM [inhibitor, full curve] | 
Cc1ccc(C2=NS(=O)(=O)N(C)C(C(=O)Nc3ccc4c(c3)OCO4)=C2)cc1 | inconclusive: 50.1 µM [inhibitor, partial curve, poor fit] | 
CC(C)n1nc(C(=O)Nc2nc3ccccc3[nH]2)c2ccccc2c1=O | inconclusive: 0.708 µM [inhibitor, full curve, poor fit] | 
O=C1c2ccccc2C(=O)N1CCCc1c[nH]c2ccccc12 | inconclusive: 56.2 µM [inhibitor, partial curve] | 

SMILES | Potency | activity change, negative = inhibition
CC(C)C(c1nnnn1CC1CCCO1)N1CCN(Cc2ccc3c(c2)OCO3)CC1 (centres undefined) | inconclusive: 56.2 µM [inhibitor, partial curve] | 
N/C(=N\OC(=O)COc1ccc2ccccc2c1)c1ccccn1 | inconclusive: 100 µM [inhibitor, single point] | 
COc1ccc(CN2CCCC(C(=O)N3CCCCC3)C2)cc1OC (centres undefined) | active: 20 µM | 
O=C1c2ccc(-c3ccc(F)cc3OCc3ccccc3)cc2S(=O)(=O)c2cccc(C(=O)N3CCCC3)c21 | inconclusive: 12.6 µM [inhibitor, full curve] | 
Cc1ccc(S(=O)(=O)N2CCN(C(=O)COc3ccc(NC(=O)c4ccco4)cc3)CC2)cc1 | inconclusive: 20 µM [inhibitor, partial curve] | 
O=C(CCn1c(=O)oc2ccccc21)NC1=NCCS1 | inconclusive: 89.1 µM [inhibitor, single point] | 
CCOC(=O)c1ccc(NC(=O)CN2CCN(CCN=CC3=C(O)CC(C)(C)CC3=O)CC2)cc1 |  | inactive: -2.07%
O=C(CN1C(=O)NC(c2ccccc2)(c2ccccc2)C1=O)Nc1ccc(N2CCOCC2)cc1 | inconclusive: 25.1 µM [inhibitor, full curve] | 
CCOc1ccccc1NC(=O)/C(C#N)=C/c1c(C)nn(-c2ccccc2)c1Cl | active: 44.7 µM | 
CN1OC[C@@H]2CN(Cc3cc(Cl)cc(Cl)c3)[C@H](c3cccc(Oc4ccccc4)c3)C[C@@H]21 | active: 89.1 µM | 
Cc1ccc(C(=O)Nc2ccc3c(c2)OCO3)o1 |  | inactive: -6.87% [at 11.4 µM]
Cc1cccc(-n2c(SCC(N)=O)nnc2-c2ccccn2)c1C | active: 79.4 µM | 
O=C1c2ccccc2NC(c2cccs2)N1O (centres undefined) | inconclusive: 25.1 µM [inhibitor, single point] | 
CC(C)CC(=O)NC(c1cccs1)c1ccc2cccnc2c1O (centres undefined) | active: 50.1 µM | 
CCC(C)(C)n1nnnc1C(c1cc2cc(C)cc(C)c2[nH]c1=O)N1CCN(C(=O)c2ccco2)CC1 (centres undefined) |  | inactive: -16.2%
CCOC(=O)c1cccc(NC(=O)CCSCCc2ccccn2)c1 |  | inactive: -8.97%
CC(=O)NC(CCS(C)(=O)=O)C(=O)Nc1ccccc1 (centres undefined) |  | inactive: -19.4%
CCN(CC)C(=O)c1ccc2c(=O)n(CCOC)c(=S)[nH]c2c1 | active: 17.8 µM | 
O=C(COc1ccc2c3c(c(=O)oc2c1)CCC3)NCCCN1CCCC1=O | inconclusive: 3.98 µM [inhibitor, single point] | 
COc1cccc(-c2nnc(SCc3ccc(C#N)cc3)n2Cc2ccco2)c1 | inconclusive: 79.4 µM [inhibitor, single point] | 
O=C(NC(=S)NCCO)c1cn(-c2ccccc2)nc1-c1ccccc1 |  | inactive: -19.9%
COc1ccc(CC(=O)Nc2c(C(=O)N3CCN(c4ccccc4)CC3)oc3ccccc23)cc1OC | inconclusive: 31.6 µM [inhibitor, full curve, poor fit] | 
